Paper PMC4336329 (PLoS ONE, 2015)
In all, about 310,000 compounds went through this assay and about 2,200 (0.71%) showed an effect of 50% or more. The effect is printed as a negative number. This is one part of the list.

Molecular target: human ether-à-go-go-related gene (hERG) potassium channel (human, UniProt Q12809)
Experiment: primary screen, population patch clamp on CHO cells stably expressing hERG

human ether-à-go-go-related gene (hERG) potassium channel, sequence (Q12809 whole entry, looked up): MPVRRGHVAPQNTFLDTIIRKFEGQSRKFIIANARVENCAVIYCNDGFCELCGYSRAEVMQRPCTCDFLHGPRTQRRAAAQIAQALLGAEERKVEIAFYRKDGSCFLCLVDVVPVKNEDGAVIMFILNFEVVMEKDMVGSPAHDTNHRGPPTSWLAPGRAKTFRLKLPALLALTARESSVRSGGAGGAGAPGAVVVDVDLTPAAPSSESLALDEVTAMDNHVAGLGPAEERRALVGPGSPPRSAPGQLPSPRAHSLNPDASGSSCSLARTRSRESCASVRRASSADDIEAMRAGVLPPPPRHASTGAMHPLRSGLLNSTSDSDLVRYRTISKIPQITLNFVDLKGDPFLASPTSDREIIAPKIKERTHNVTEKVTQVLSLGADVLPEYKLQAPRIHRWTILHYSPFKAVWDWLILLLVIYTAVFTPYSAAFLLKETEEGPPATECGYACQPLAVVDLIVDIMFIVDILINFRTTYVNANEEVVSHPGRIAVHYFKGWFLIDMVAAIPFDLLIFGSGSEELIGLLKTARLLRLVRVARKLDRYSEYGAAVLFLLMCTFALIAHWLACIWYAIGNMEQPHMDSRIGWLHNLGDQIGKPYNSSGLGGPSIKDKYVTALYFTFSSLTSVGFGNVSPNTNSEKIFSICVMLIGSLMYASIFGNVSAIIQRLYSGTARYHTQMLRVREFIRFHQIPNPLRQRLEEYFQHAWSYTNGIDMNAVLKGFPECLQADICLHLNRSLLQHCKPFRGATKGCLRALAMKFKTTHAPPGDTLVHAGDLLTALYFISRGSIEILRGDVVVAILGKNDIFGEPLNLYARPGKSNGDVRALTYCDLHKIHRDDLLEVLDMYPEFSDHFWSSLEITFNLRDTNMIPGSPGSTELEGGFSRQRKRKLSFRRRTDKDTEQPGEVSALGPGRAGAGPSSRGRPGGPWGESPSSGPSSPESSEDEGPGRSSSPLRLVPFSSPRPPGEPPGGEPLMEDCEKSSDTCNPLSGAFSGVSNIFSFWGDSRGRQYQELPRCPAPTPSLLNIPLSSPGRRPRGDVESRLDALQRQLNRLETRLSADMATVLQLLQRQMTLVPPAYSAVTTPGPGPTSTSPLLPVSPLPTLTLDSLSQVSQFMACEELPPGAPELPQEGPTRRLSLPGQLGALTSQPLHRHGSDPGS

| SMILES | hERG current change (%, negative = inhibition) at 1uM [%] |
| --- | --- |
| CCOC(=O)[C@H]1[C@H]2COc3ccc(C)cc3[C@@H]2N2C(=O)CN(Cc3ccc(OC)cc3)C(=O)[C@@]12C | 14 |
| Nc1cc(=O)[nH]c(SCC(=O)N2N=C(c3ccc(Cl)cc3)CC2c2ccco2)n1 (stereo not shown) | 8.46 |
| COC(=O)C1=C(c2cccc(OCc3ccccc3)c2)C[C@@H]2CC[C@H]1N2C(=O)NCc1ccc(Cl)cc1 | 14.9 |
| O=C(NC1CCCC1)c1cnc2n(c1=O)CCS2 | 10.8 |
| CCOc1ccc(C2CC(=O)NC2=O)cc1 (stereo not shown) | 3.63 |
| COCCN1C(=O)/C(=C/c2ccc(Oc3ccc([N+](=O)[O-])cn3)c(OC)c2)SC1=Nc1ccccc1 | 12.8 |
| CCOc1ccc(N(CC(=O)NCc2ccccc2)C(=O)Cn2nnc(-c3ccc(C)o3)n2)cc1 | 7.76 |
| COc1ccc(CC(NC(C)=O)C(=O)NC2CCN(c3nnnn3-c3ccccc3)CC2)cc1 (stereo not shown) | 11.7 |
| Cl.O=C(O)c1cc([N+](=O)[O-])cc([N+](=O)[O-])c1N1CCN(c2cccc(C(F)(F)F)c2)CC1 | 17.2 |
| COc1cccc(NC(=O)NC(C)C2CC3CCC2C3)c1 (stereo not shown) | 12.3 |
| C/C(CC(=O)Nc1cccc(Cl)c1Cl)=N\NC(=O)c1ccccc1C | 8.35 |
| CC(c1ccco1)N(C(=O)c1ccc(C#N)cc1)c1ccccn1 (stereo not shown) | 5.5 |
| Cc1cccc(NC(=S)NC(C)C(c2cccs2)N2CCN(C)CC2)c1C (stereo not shown) | -11.1 |
| COc1ccccc1-n1c(CNC(=O)c2cccc([N+](=O)[O-])c2C)n[nH]c1=S | 15.5 |
| O=C(NNC(=O)c1csc(-c2cccnc2)n1)c1ccccc1 | -0.718 |
| Cn1cccc1-c1cc(C(=O)N/N=C/c2ccc(F)cc2)[nH]n1 | 6.62 |
| O=C(NC(=S)Nc1ccc(Cl)cn1)c1cc([N+](=O)[O-])ccc1N1CCOCC1 | 13.7 |
| O=C(C[n+]1cc(-c2ccc(Cl)cc2)n2c1CCC2)N1c2ccccc2Sc2ccccc21.[Cl-] | 7.01 |
| Cc1ccc(C(=O)CSc2nc3ccccc3c(=O)n2-c2ccccc2)s1 | 6.06 |
| CC1(C(=O)O)COC(c2ccc(Cl)cc2)OC1 (stereo not shown) | -7.39 |
| Cc1cccc(NC(=O)CCN2C(=O)C3C4C=CC(C4)C3C2=O)n1 (stereo not shown) | 8.01 |
| CN1CCN(S(=O)(=O)c2ccc(N(C)Cc3cccs3)nc2)CC1 | 9.23 |
| Cc1ccc(CS(=O)Cc2ccc(C(=O)NC3CCC(C)CC3)o2)cc1 (stereo not shown) | 14 |
| CC(=O)Nc1sc(N/N=C/c2ccccc2)nc1-c1ccc(C)cc1 | 11.7 |
| N#Cc1cc2ccccc2nc1SCc1cccnc1 | -8.94 |
| Cc1ccc(S(=O)(=O)NC(=O)c2cc(C)n(CC(c3ccccc3)N(C)C)c2C)cc1 (stereo not shown) | 6.34 |
| Cc1ccc(C)c(OCCC(=O)OCC(=O)NC2CCCC2)c1 | 9.05 |
| CC(Sc1nnc2c(n1)[nH]c1ccccc12)C(=O)N(C)C1CCCCC1 (stereo not shown) | 8.41 |

| SMILES | hERG current change (%, negative = inhibition) at 1uM [%] |
| --- | --- |
| CCCc1nn2c(=O)cc(CSCC(=O)Nc3ccc(C)cc3)nc2s1 | 12.8 |
| O=C(CCNC(=O)c1ccco1)NCCN1C(=O)S/C(=C\c2ccc(F)cc2)C1=O | 12.8 |
| NS(=O)(=O)c1ccc(Nc2ccccc2)c([N+](=O)[O-])c1 | 8.08 |
| CCOc1cc(/C=C/c2cccc[n+]2C)ccc1O.[I-] | 16.8 |
| CS(=O)(=O)Nc1cccc(C(=O)CC2(O)C(=O)Nc3ccc(Br)cc32)c1 (stereo not shown) | 13 |
| CCC(=O)N1CCN(c2ccc(NC(=S)NC(=O)c3ccc(OC)c([N+](=O)[O-])c3)cc2)CC1 | 7.96 |
| CCO[C@H]1OC(C(=O)N2CCOCC2)=C[C@@H](c2ccc(Br)cc2)[C@@H]1CCCO | -1.89 |
| Cl.O=C(c1cc2ccccc2o1)N1CCN(Cc2ccccc2)CC1 | -5.81 |
| COc1nccc(-c2ccc(F)cc2)c1C#N | 16.9 |
| CCC1=NNc2cccc3c(OC)ccc1c23 | 8.13 |
| CCCN1CNC(=S)N(c2cccc(C)c2C)C1 | -0.0042 |
| COCCn1c(-c2ccccc2)cc(C(=O)O)c1C | 14.7 |
| Cc1c(-c2ccccc2)nc2ccccc2c1C(=O)O | 10.1 |
| Cc1c(C(=O)NCc2ccoc2)oc2ccc3c(c12)C(=O)CC(C)(C)O3 | 9.59 |
| CN(CC1COc2ccccc2O1)C(=O)c1cc(COc2c(F)cccc2F)on1 (stereo not shown) | 8.21 |
| CCOC(=O)C1CCN(C(C)=C2C(=O)c3ccccc3C2=O)CC1 | 2.4 |
| CCc1ccc(C(=O)Nn2c(C)nc3ccccc3c2=O)cc1 | 8.2 |
| CN(C)c1ccc(/C=C2/C(=O)NC(=O)N(CCc3ccc(F)cc3)C2=O)cc1 | 10.4 |
| O=C(CCSCc1cccc(F)c1)NCc1ccc(F)cc1 | -9.29 |
| Clc1ccc2nc3ccccn3c2c1 | 7.9 |
| Cc1ccc(-n2nc(C)c(C(C)(O)C(F)(F)F)c2N)cc1 (stereo not shown) | 0.0166 |
| O=C(Nc1cccc2cccnc12)c1ccc(Cl)cc1Cl | 14.1 |
| N#Cc1ccccc1S(=O)(=O)N1CCN(C(=O)Cc2coc3cc(O)ccc23)CC1 | 3.12 |
| Cc1ccc(C)c(S(=O)(=O)N2CCN(C(=O)CCNS(=O)(=O)c3ccccc3)CC2)c1 | 8.13 |
| CCOC(=O)c1csc(-c2ccc([N+](=O)[O-])cc2)n1 | 4.25 |
| CCC1COCCS(=O)(=O)N1Cc1ccccc1F (stereo not shown) | -2.03 |
| O=c1cc(COc2ncnc3c(Cl)cc(Cl)cc23)nc2sccn12 | 2.24 |
